Laboratory results from the supplement of paper PMC4604168 (melanoma cell lines).
Some of the results follow. Single values are uncertain, as repeats are few or missing.

The compounds below were run on A101D (assay: cell count relative to DMSO control; melanoma cells; higher = more viable cells). Details: library dose: standard library concentration; 72 h.
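Further: cells treated in 1,536-well plates, then fixed and DAPI-stained, with nuclei counted from automated high-throughput microscope images.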

Compound | cell count [%]
C#Cc1cccc(Nc2ncnc3cc(OCCOC)c(OCCOC)cc23)c1 [erlotinib] + Nc1cccc2c1CN(C1CCC(=O)NC1=O)C2=O [lenalidomide] (first compound 4 µM, partner dose 5 µM) | 74.2
O=C(CCCCCCC(=O)Nc1ccccc1)NO [vorinostat] + OCCn1cc(-c2cnc3nnn(Cc4ccc5ncccc5c4)c3n2)cn1 [PF04217903] (first compound 0.4 µM, partner dose 5 µM) | 95.4
Nc1cccc2c1CN(C1CCC(=O)NC1=O)C2=O (stereo not drawn) [lenalidomide] + OCCn1cc(-c2cnc3nnn(Cc4ccc5ncccc5c4)c3n2)cn1 [PF04217903] (first compound 5 µM, partner dose 5 µM) | 94.8
C#Cc1cccc(Nc2ncnc3cc(OCCOC)c(OCCOC)cc23)c1 [erlotinib] + C=CCn1c(=O)c2cnc(Nc3ccc(N4CCN(C)CC4)cc3)nc2n1-c1cccc(C(C)(C)O)n1 [MK1775] (first compound 4 µM, partner dose 0.1 µM) | 48.7
COCC[n+]1c2c(n(Cc3cnccn3)c1C)C(=O)c1ccccc1C2=O + O=C(O)c1ccc(-c2c[nH]c3ncc(-c4ccccc4)cc23)cc1C1CCCC1 [GSK650394] (first compound 0.002 µM, partner dose 0.8 µM) | 85.1
OCc1c[nH]c2ccccc12 [Indole-3-carbinol] + NC(=O)Nc1cc(-c2cccc(F)c2)sc1C(=O)N[C@H]1CCCNC1 [AZD7762] (first compound 4 µM, partner dose 0.1 µM) | 60.2
Clc1ccc(Nc2nnc(Cc3ccncc3)c3ccccc23)cc1 [vatalanib] + Cn1nnc2c(C(N)=O)ncn2c1=O [temozolomide] (first compound 10 µM, partner dose 10 µM) | 63.5
Nc1cccc2c1CN(C1CCC(=O)NC1=O)C2=O (stereo not drawn) [lenalidomide] + C[C@]1(c2nc3c(C(N)=O)cccc3[nH]2)CCCN1 [Veliparib] (first compound 5 µM, partner dose 7 µM) | 94.9

The compounds below were run on A2058 in the same assay as above. Details: library dose: standard library concentration; 72 h.

Compound | cell count [%]
C#Cc1cccc(Nc2ncnc3cc(OCCOC)c(OCCOC)cc23)c1 [erlotinib] + COc1cc2c(Oc3ccc4[nH]c(C)cc4c3F)ncnc2cc1OCCCN1CCCC1 [cediranib] (first compound 4 µM, partner dose 2 µM) | 78.4
Clc1ccc(Nc2nnc(Cc3ccncc3)c3ccccc23)cc1 [vatalanib] + Cn1c(Nc2ccc(C(F)(F)F)cc2)nc2cc(Oc3ccnc(-c4ncc(C(F)(F)F)[nH]4)c3)ccc21 [CHIR265] (first compound 10 µM, partner dose 0.4 µM) | 61.6
Nc1cccc2c1CN(C1CCC(=O)NC1=O)C2=O (stereo not drawn) [lenalidomide] + CO[C@@H]1[C@H](N(C)C(=O)c2ccccc2)C[C@H]2O[C@]1(C)n1c3ccccc3c3c4c(c5c6ccccc6n2c5c31)C(=O)NC4 [Midostaurin] (first compound 5 µM, partner dose 0.4 µM) | 67.4
Cn1c(Nc2ccc(C(F)(F)F)cc2)nc2cc(Oc3ccnc(-c4ncc(C(F)(F)F)[nH]4)c3)ccc21 + COCC[n+]1c2c(n(Cc3cnccn3)c1C)C(=O)c1ccccc1C2=O [YM155] (first compound 0.4 µM, partner dose 0.002 µM) | 15.7
Clc1ccc(Nc2nnc(Cc3ccncc3)c3ccccc23)cc1 [vatalanib] + CN(C)S(=O)(=O)c1ccc2c(c1)/C(=C/c1cc3c([nH]1)CCCC3)C(=O)N2 [SU6656] (first compound 10 µM, partner dose 2 µM) | 53.1
OCc1c[nH]c2ccccc12 [Indole-3-carbinol] + C[C@@H]1CCN(C(=O)CC#N)C[C@@H]1N(C)c1ncnc2[nH]ccc12 [CP690550] (first compound 4 µM, partner dose 5 µM) | 105
Clc1ccc(Nc2nnc(Cc3ccncc3)c3ccccc23)cc1 [vatalanib] + COc1cc(Nc2ncc(F)c(Nc3ccc4c(n3)NC(=O)C(C)(C)O4)n2)cc(OC)c1OC [Tamatinib] (first compound 10 µM, partner dose 2 µM) | 63.2
C#Cc1cccc(Nc2ncnc3cc(OCCOC)c(OCCOC)cc23)c1 [erlotinib] + Cc1ccc(NC(=O)c2cccc(N(C)C)c2)cc1NC(=O)c1ccc(O)cc1 [ZM336372] (first compound 4 µM, partner dose 10 µM) | 89.7
Nc1cccc2c1CN(C1CCC(=O)NC1=O)C2=O (stereo not drawn) [lenalidomide] + CN(C)S(=O)(=O)c1ccc2c(c1)/C(=C/c1cc3c([nH]1)CCCC3)C(=O)N2 [SU6656] (first compound 5 µM, partner dose 2 µM) | 90
Cn1c(Nc2ccc(C(F)(F)F)cc2)nc2cc(Oc3ccnc(-c4ncc(C(F)(F)F)[nH]4)c3)ccc21 + CN(NC(=O)CC(=O)NN(C)C(=S)c1ccccc1)C(=S)c1ccccc1 [STA4783] (first compound 0.4 µM, partner dose 0.03 µM) | 13.8
O=C(CCCCCCC(=O)Nc1ccccc1)NO [vorinostat] + CC1(C)NC(=O)N(c2ccc([N+](=O)[O-])c(C(F)(F)F)c2)C1=O [nilutamide] (first compound 0.4 µM, partner dose 5 µM) | 93.1
COCC[n+]1c2c(n(Cc3cnccn3)c1C)C(=O)c1ccccc1C2=O + CC(C)(C)c1cnc(CSc2cnc(NC(=O)C3CCNCC3)s2)o1 [SNS-032] (first compound 0.002 µM, partner dose 0.05 µM) | 15.5
C#Cc1cccc(Nc2ncnc3cc(OCCOC)c(OCCOC)cc23)c1 [erlotinib] + CO[C@@H]1[C@H](N(C)C(=O)c2ccccc2)C[C@H]2O[C@]1(C)n1c3ccccc3c3c4c(c5c6ccccc6n2c5c31)C(=O)NC4 [Midostaurin] (first compound 4 µM, partner dose 0.4 µM) | 35.9
Clc1ccc(Nc2nnc(Cc3ccncc3)c3ccccc23)cc1 [vatalanib] + O=C(Nc1cccc(Cl)c1)Nc1ncc(CCNc2ncnc3ccsc23)s1 [SNS314] (first compound 10 µM, partner dose 0.004 µM) | 93.7
COCC[n+]1c2c(n(Cc3cnccn3)c1C)C(=O)c1ccccc1C2=O + C[C@@H]1CCN(C(=O)CC#N)C[C@@H]1N(C)c1ncnc2[nH]ccc12 [CP690550] (first compound 0.002 µM, partner dose 5 µM) | 22.4
Cn1c(Nc2ccc(C(F)(F)F)cc2)nc2cc(Oc3ccnc(-c4ncc(C(F)(F)F)[nH]4)c3)ccc21 + CC1(C)NC(=O)N(c2ccc([N+](=O)[O-])c(C(F)(F)F)c2)C1=O [nilutamide] (first compound 0.4 µM, partner dose 5 µM) | 58.8
COCC[n+]1c2c(n(Cc3cnccn3)c1C)C(=O)c1ccccc1C2=O + NC(=O)Nc1cc(-c2cccc(F)c2)sc1C(=O)N[C@H]1CCCNC1 [AZD7762] (first compound 0.002 µM, partner dose 0.1 µM) | 6.92
C#Cc1cccc(Nc2ncnc3cc(OCCOC)c(OCCOC)cc23)c1 [erlotinib] + CN(C)S(=O)(=O)c1ccc2c(c1)/C(=C/c1cc3c([nH]1)CCCC3)C(=O)N2 [SU6656] (first compound 4 µM, partner dose 2 µM) | 67.9
Cn1c(Nc2ccc(C(F)(F)F)cc2)nc2cc(Oc3ccnc(-c4ncc(C(F)(F)F)[nH]4)c3)ccc21 + COc1cc2c(Oc3ccc4[nH]c(C)cc4c3F)ncnc2cc1OCCCN1CCCC1 [cediranib] (first compound 0.4 µM, partner dose 2 µM) | 68.7
Clc1ccc(Nc2nnc(Cc3ccncc3)c3ccccc23)cc1 [vatalanib] + Cc1ccc(NC(=O)c2cccc(N(C)C)c2)cc1NC(=O)c1ccc(O)cc1 [ZM336372] (first compound 10 µM, partner dose 10 µM) | 104
Cn1c(Nc2ccc(C(F)(F)F)cc2)nc2cc(Oc3ccnc(-c4ncc(C(F)(F)F)[nH]4)c3)ccc21 + CC(C)(C)c1cnc(CSc2cnc(NC(=O)C3CCNCC3)s2)o1 [SNS-032] (first compound 0.4 µM, partner dose 0.05 µM) | 49.7
C#Cc1cccc(Nc2ncnc3cc(OCCOC)c(OCCOC)cc23)c1 [erlotinib] + COc1cc(Nc2ncc(F)c(Nc3ccc4c(n3)NC(=O)C(C)(C)O4)n2)cc(OC)c1OC [Tamatinib] (first compound 4 µM, partner dose 2 µM) | 81
Cn1c(Nc2ccc(C(F)(F)F)cc2)nc2cc(Oc3ccnc(-c4ncc(C(F)(F)F)[nH]4)c3)ccc21 + C[C@]1(c2nc3c(C(N)=O)cccc3[nH]2)CCCN1 [Veliparib] (first compound 0.4 µM, partner dose 7 µM) | 63.1
COCC[n+]1c2c(n(Cc3cnccn3)c1C)C(=O)c1ccccc1C2=O + CC1(C)NC(=O)N(c2ccc([N+](=O)[O-])c(C(F)(F)F)c2)C1=O [nilutamide] (first compound 0.002 µM, partner dose 5 µM) | 29.7
O=C(CCCCCCC(=O)Nc1ccccc1)NO [vorinostat] + CO[C@@H]1[C@H](N(C)C(=O)c2ccccc2)C[C@H]2O[C@]1(C)n1c3ccccc3c3c4c(c5c6ccccc6n2c5c31)C(=O)NC4 [Midostaurin] (first compound 0.4 µM, partner dose 0.4 µM) | 43.7
